{"source": "the supplement of paper PMC11316812", "key": {"hTERT-HMEC": {"test_system": "hTERT-HMEC", "assay": "percentage of EdU-negative (G0-arrested) nuclei per well, 72 h; higher = more G0 arrest", "conditions": "reference: sequence is the full UniProt precursor, the tested protein was the secreted form or ectodomain"}, "MCF7": {"test_system": "MCF7", "assay": "percentage of EdU-negative (G0-arrested) nuclei per well, 72 h; higher = more G0 arrest", "conditions": "reference: sequence is the full UniProt precursor, the tested protein was the secreted form or ectodomain"}, "[1]": {"conditions": "protein concentration 0.0225 µM"}}, "note": "± gives the standard deviation of the averaged measurements.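 Also: secreted proteins added to cultured cells, EdU pulse at the end, nuclei found by Hoechst imaging, EdU status from nuclear versus surrounding ring intensity ratio, PBS as neutral control.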", "data": [{"sequence": "MTWRHHVRLLFTVSLALQIINLGNSYQREKHNGGREEVTKVATQKHRQSPLNWTSSHFGEVTGSAEGWGPEEPLPYSRAFGEGASARPRCCRNGGTCVLGSFCVCPAHFTGRYCEHDQRRSECGALEHGAWTLRACHLCRCIFGALHCLPLQTPDRCDPKDFLASHAHGPSAGGAPSLLLLLPCALLHRLLRPDAPAHPRSLVPSVLQRERRPCGRPGLGHRL [P0CG37]", "values": [{"measurement": "percentage of EdU-negative", "setting": "hTERT-HMEC; [1]", "result": "3.95 ± 0.99", "unit": "%"}, {"measurement": "percentage of EdU-negative", "setting": "hTERT-HMEC; protein concentration 0.225 µM", "result": "5.06 ± 0.65", "unit": "%"}, {"measurement": "percentage of EdU-negative", "setting": "MCF7; [1]", "result": "26.8 ± 0.65", "unit": "%"}, {"measurement": "percentage of EdU-negative", "setting": "MCF7; protein concentration 0.225 µM", "result": "31 ± 0.7", "unit": "%"}]}, {"sequence": "MVFQTRYPSWIILCYIWLLRFAHTGEAQAAKEVLLLDSKAQQTELEWISSPPNGWEEISGLDENYTPIRTYQVCQVMEPNQNNWLRTNWISKGNAQRIFVELKFTLRDCNSLPGVLGTCKETFNLYYYETDYDTGRNIRENLYVKIDTIAADESFTQGDLGERKMKLNTEVREIGPLSKKGFYLAFQDVGACIALVSVKVYYKKCWSIIENLAIFPDTVTGSEFSSLVEVRGTCVSSAEEEAENAPRMHCSAEGEWLVPIGKCICKAGYQQKGDTCEPCGRGFYKSSSQDLQCSRCPTHSFSDKEGSSRCECEDGYYRAPSDPPYVACTRPPSAPQNLIFNINQTTVSLEWSPPADNGGRNDVTYRILCKRCSWEQGECVPCGSNIGYMPQQTGLEDNYVTVMDLLAHANYTFEVEAVNGVSDLSRSQRLFAAVSITTGQAAPSQVSGVMKERVLQRSVELSWQEPEHPNGVITEYEIKYYEKDQRERTYSTVKTKSTSASINNLKPGTVYVFQIRAFTAAGYGNYSPRLDVATLEEATGKMFEATAVSSEQNPVIIIAVVAVAGTIILVFMVFGFIIGRRHCGYSKADQEGDEELYFHFKFPGTKTYIDPETYEDPNRAVHQFAKELDASCIKIERVIGAGEFGEVCSGRLKLPGKRDVAVAIKTLKVGYTEKQRRDFLCEASIMGQFDHPNVVHLEGVVTRGKPVMIVIEFMENGALDAFLRKHDGQFTVIQLVGMLRGIAAGMRYLADMGYVHRDLAARNILVNSNLVCKVSDFGLSRVIEDDPEAVYTTTGGKIPVRWTAPEAIQYRKFTSASDVWSYGIVMWEVMSYGERPYWDMSNQDVIKAIEEGYRLPAPMDCPAGLHQLMLDCWQKERAERPKFEQIVGILDKMIRNPNSLKTPLGTCSRPISPLLDQNTPDFTTFCSVGEWLQAIKMERYKDNFTAAGYNSLESVARMTIEDVMSLGITLVGHQKKIMSSIQTMRAQMLHLHGTGIQV", "values": [{"measurement": "percentage of EdU-negative", "setting": "hTERT-HMEC; [1]", "result": "5.15 ± 0.097", "unit": "%"}, {"measurement": "percentage of EdU-negative", "setting": "hTERT-HMEC; protein concentration 0.225 µM", "result": "5.51 ± 0.13", "unit": "%"}, {"measurement": "percentage of EdU-negative", "setting": "MCF7; [1]", "result": "28.9 ± 0.44", "unit": "%"}, {"measurement": "percentage of EdU-negative", "setting": "MCF7; protein concentration 0.225 µM", "result": "26.9 ± 1.1", "unit": "%"}]}, {"sequence": "MVRSVAWAGFMVLLMIPWGSAAKLVCYFTNWAQYRQGEARFLPKDLDPSLCTHLIYAFAGMTNHQLSTTEWNDETLYQEFNGLKKMNPKLKTLLAIGGWNFGTQKFTDMVATANNRQTFVNSAIRFLRKYSFDGLDLDWEYPGSQGSPAVDKERFTTLVQDLANAFQQEAQTSGKERLLLSAAVPAGQTYVDAGYEVDKIAQNLDFVNLMAYDFHGSWEKVTGHNSPLYKRQEESGAAASLNVDAAVQQWLQKGTPASKLILGMPTYGRSFTLASSSDTRVGAPATGSGTPGPFTKEGGMLAYYEVCSWKGATKQRIQDQKVPYIFRDNQWVGFDDVESFKTKVSYLKQKGLGGAMVWALDLDDFAGFSCNQGRYPLIQTLRQELSLPYLPSGTPELEVPKPGQPSEPEHGPSPGQDTFCQGKADGLYPNPRERSSFYSCAAGRLFQQSCPTGLVFSNSCKCCTWN", "values": [{"measurement": "percentage of EdU-negative", "setting": "hTERT-HMEC; [1]", "result": "5.45 ± 0.53", "unit": "%"}, {"measurement": "percentage of EdU-negative", "setting": "hTERT-HMEC; protein concentration 0.225 µM", "result": "5.69 ± 1", "unit": "%"}, {"measurement": "percentage of EdU-negative", "setting": "MCF7; [1]", "result": "25.7 ± 0.76", "unit": "%"}, {"measurement": "percentage of EdU-negative", "setting": "MCF7; protein concentration 0.225 µM", "result": "25.5 ± 2.2", "unit": "%"}]}]}
